# Measured values reported in the supplement of paper PMC12355420.
# Where a name gives a salt, the structure may show the parent alone. Some of the results follow. Rule as the data show it: active = 0.5 or less and inactive = the rest. Many values rest on one well or one pass, so single values are uncertain.
# Test system: HeLa VPS33A reporter cells;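 also: primary screen of an FDA-approved drug library in HeLa reporter cells in 96-well format, CellMask signal normalized to DMSO-treated wells set as 1, under 0.5 deemed highly cytotoxic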
# Experiment: relative cell viability (CellMask signal) vs DMSO (fraction of DMSO); higher = less cytotoxic
# Details: 50 µM; 24 h
row,Compound,relative cell viability
1,CC(C)[C@H](N)C(=O)O [L-Valine],1.06
2,CC1(C)S[C@@H]2[C@H](NC(=O)[C@H](N)c3ccc(O)cc3)C(=O)N2[C@H]1C(=O)O [Amoxicillin],1.03
3,N=C(N)NCCC[C@H](N)C(=O)O [L-Arginine (hydrochloride)],1.28
4,COc1ccc(OC)c(C(O)CNC(=O)CN)c1 (stereo unspecified) [Midodrine (hydrochloride)],0.979
5,Cc1c(-c2cnccn2)ssc1=S [Oltipraz],1.16
6,Cc1nccn1CC1CCc2c(c3ccccc3n2C)C1=O (stereo unspecified) [Ondansetron hydrochloride dihydrate],1.44
7,O=C(O)CCCc1ccccc1 [Sodium Phenylbutyrate],1.04
8,Cc1ncc(CO)c(CO)c1O [Pyridoxine HCl],0.963
9,CC(=O)OCC(=O)[C@@]1(O)[C@H](C)C[C@H]2[C@@H]3CCC4=CC(=O)C=C[C@]4(C)[C@@]3(F)[C@@H](O)C[C@@]21C [Dexamethasone acetate],1.08
10,CCCCNc1cc(C(=O)O)cc(S(N)(=O)=O)c1Oc1ccccc1 [Bumetanide],1.18
11,CCCCOc1cc(C(=O)NCCN(CC)CC)c2ccccc2n1 [Dibucaine],1.04
12,NCCC(=O)O [beta-Alanine],0.996
13,COc1ccc2[nH]c([S@@+]([O-])Cc3ncc(C)c(OC)c3C)nc2c1 [Esomeprazole Magnesium],0.988
14,CCOc1cc(CC(=O)N[C@@H](CC(C)C)c2ccccc2N2CCCCC2)ccc1C(=O)O [Repaglinide],0.987
15,CC1=C(C/C=C(\C)CCC[C@H](C)CCC[C@H](C)CCCC(C)C)C(=O)c2ccccc2C1=O [Vitamin K1],1
16,CC(C)C(=O)OCC(=O)[C@@]12O[C@H](C3CCCCC3)O[C@@H]1C[C@H]1[C@@H]3CCC4=CC(=O)C=C[C@]4(C)[C@H]3[C@@H](O)C[C@@]12C [Ciclesonide],0.945

# Test system: HeLa VPS33A R498W KI + HA-SDC1-FLAG;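 also: HA-SDC1 level read out by In-Cell Western staining with an anti-HA antibody against the N-terminal tag, screening FDA-approved library drugs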
# Experiment: relative GAG core protein HA-SDC1 amount per cell number vs DMSO (fraction of DMSO); HeLa model of a glycosaminoglycan (GAG) storage disease; KI is knock-in and KO knock-out; SDC1 is syndecan 1; higher = more SDC1 (GAG core protein)
# Details: 50 µM; 24 h
row,Compound,relative GAG core protein HA-SDC1 amount per cell number
1,"Cc1cc(Nc2cc(N3CCN(C)CC3)nc(Sc3ccc(NC(=O)C4CC4)cc3)n2)n[nH]1 [VX-680 (MK-0457,Tozasertib)]",inactive: 0.827
2,CC[C@@]1(O)C(=O)OCc2c1cc1n(c2=O)Cc2cc3cc(O)ccc3nc2-1 [10-Hydroxycamptothecin],inactive: 0.686
3,NC(CO)C(=O)O (racemic) [DL-Serine],inactive: 0.919
4,Cl.NCCCC[C@H](N)C(=O)O [L-Lysine hydrochloride],inactive: 0.959
5,O=c1[nH]c(=O)n([C@H]2C[C@H](O)[C@@H](CO)O2)cc1C(F)(F)F [Triflurdine (Viroptic)],inactive: 0.87
6,COc1ccc(CNc2nc(N3CCC[C@H]3CO)ncc2C(=O)NCc2ncccn2)cc1Cl [Avanafil],inactive: 1.37
7,Nc1ncnc2c1ncn2[C@@H]1O[C@H](CO)[C@@H](O)[C@@H]1O [Vidarabine],inactive: 0.791
8,CO[C@@]1(NC(=O)Cc2cccs2)C(=O)N2C(C(=O)O)=C(COC(N)=O)CS[C@@H]21 [Cefoxitin (sodium salt)],inactive: 0.833
9,C[C@]12C[C@H](O)[C@H]3[C@@H](CCC4=CC(=O)CC[C@@]43C)[C@@H]1CC[C@@H]2C(=O)CO [Corticosterone],inactive: 0.948
10,O=C1Cc2cc(CCN3CCN(c4nsc5ccccc45)CC3)c(Cl)cc2N1 [Ziprasidone],inactive: 1.48
11,CCC(=O)NCC[C@@H]1CCc2ccc3c(c21)CCO3 [Ramelteon],inactive: 1.05
12,CC(C)(C)NCC(O)c1cc(O)cc(O)c1 (stereo unspecified) [Terbutaline Sulfate],inactive: 1.31
13,O=c1[nH]cnc2nc[nH]c12 [Hypoxanthine],inactive: 0.863
14,C[N+]1(C)CCC(=C(c2ccccc2)c2ccccc2)CC1 [Diphemanil Methylsulfate],inactive: 0.813
15,C#C[C@]1(O)CC[C@H]2[C@@H]3CCC4=Cc5oncc5C[C@]4(C)[C@H]3CC[C@@]21C [Danazol],inactive: 0.974
16,CCc1ccc(CCOc2ccc(CC3SC(=O)NC3=O)cc2)nc1 (stereo unspecified) [Pioglitazone],inactive: 1.06
17,CC(C)C[C@H](NC(=O)[C@@H](O)[C@H](N)Cc1ccccc1)C(=O)O [Bestatin],inactive: 0.868
18,CN(CCOc1ccc(CC2SC(=O)NC2=O)cc1)c1ccccn1 (stereo unspecified) [Rosiglitazone HCl],inactive: 0.848
19,CNC(=O)c1cc(Oc2ccc(NC(=O)Nc3ccc(Cl)c(C(F)(F)F)c3)c(F)c2)ccn1 [Regorafenib monohydrate],inactive: 0.576
20,C[C@H](CCC(=O)NCC(=O)O)[C@H]1CC[C@H]2[C@@H]3[C@H](O)C[C@@H]4C[C@H](O)CC[C@]4(C)[C@H]3C[C@H](O)[C@]12C [Glycocholic Acid],inactive: 0.851

row,Compound,relative GAG core protein HA-SDC1 amount per cell number
1,COc1ccc2c(c1)c(CC(=O)O)c(C)n2C(=O)c1ccc(Cl)cc1 [Indomethacin],inactive: 1.15
2,COc1ccc(-n2nc(C(N)=O)c3c2C(=O)N(c2ccc(N4CCCCC4=O)cc2)CC3)cc1 [Apixaban],inactive: 0.86
3,COC(=O)N[C@H](C(=O)N[C@@H](Cc1ccccc1)[C@@H](O)CN(Cc1ccc(-c2ccccn2)cc1)NC(=O)[C@@H](NC(=O)OC)C(C)(C)C)C(C)(C)C,inactive: 0.548
4,CC(=O)O[C@H]1C[C@@H]2CC[C@@H]3[C@H](CC[C@@]4(C)[C@H]3C[C@H]([N+]3(C)CCCCC3)[C@@H]4OC(C)=O)[C@@]2(C)C[C@@H]1N1CCCCC1 [Vecuronium Bromide],inactive: 1.31
5,CC(C)[C@H](N)C(=O)O [L-Valine],inactive: 0.939
6,CC1(C)S[C@@H]2[C@H](NC(=O)[C@H](N)c3ccc(O)cc3)C(=O)N2[C@H]1C(=O)O [Amoxicillin],inactive: 1.16
7,N=C(N)NCCC[C@H](N)C(=O)O [L-Arginine (hydrochloride)],inactive: 0.897
8,COc1ccc(OC)c(C(O)CNC(=O)CN)c1 (stereo unspecified) [Midodrine (hydrochloride)],inactive: 0.832
9,Cc1c(-c2cnccn2)ssc1=S [Oltipraz],inactive: 0.856
10,Cc1nccn1CC1CCc2c(c3ccccc3n2C)C1=O (stereo unspecified) [Ondansetron hydrochloride dihydrate],inactive: 1.07
11,O=C(O)CCCc1ccccc1 [Sodium Phenylbutyrate],inactive: 1.29
12,Cc1ncc(CO)c(CO)c1O [Pyridoxine HCl],inactive: 0.901
13,CC(=O)OCC(=O)[C@@]1(O)[C@H](C)C[C@H]2[C@@H]3CCC4=CC(=O)C=C[C@]4(C)[C@@]3(F)[C@@H](O)C[C@@]21C [Dexamethasone acetate],inactive: 0.96
14,CCCCNc1cc(C(=O)O)cc(S(N)(=O)=O)c1Oc1ccccc1 [Bumetanide],inactive: 1.08
15,CCCCOc1cc(C(=O)NCCN(CC)CC)c2ccccc2n1 [Dibucaine],inactive: 0.598
16,NCCC(=O)O [beta-Alanine],inactive: 0.951
17,COc1ccc2[nH]c([S@@+]([O-])Cc3ncc(C)c(OC)c3C)nc2c1 [Esomeprazole Magnesium],inactive: 0.727
18,CCOc1cc(CC(=O)N[C@@H](CC(C)C)c2ccccc2N2CCCCC2)ccc1C(=O)O [Repaglinide],active: 0.465
19,CC1=C(C/C=C(\C)CCC[C@H](C)CCC[C@H](C)CCCC(C)C)C(=O)c2ccccc2C1=O [Vitamin K1],inactive: 1.06
20,CC(C)C(=O)OCC(=O)[C@@]12O[C@H](C3CCCCC3)O[C@@H]1C[C@H]1[C@@H]3CCC4=CC(=O)C=C[C@]4(C)[C@H]3[C@@H](O)C[C@@]12C [Ciclesonide],inactive: 0.62
